Over roughly 81,000 sequences, “one-hybrid fitness for binding parS DNA” has its median near -0.17; the highest 2% begin near 0.51. The list shows a part of the results.
B1: Caulobacter ParB omega fusion; a variant is named by its letters at X, in order, B8GW30 (parent)
chain: MESVVVGEPGMSEGRRGLGRGLSALLGEVDAAPAQAPGEQLGGSREAPIEILQRNPDQPRRTFREEDLEDLSNSIREKGVLQPILVRPSPDTAGEYQIVAGERAWRAAQRAGLKTVPIMVRELDDLAVLEIGIIENVQRADLNVLEEALSYKVLMEKFERTQENIAQTIGKSXSHVANXMRLLXLPDEVQSYLVSGELTAXHARAIAAAADPVALAKQIIEGGLSVRETEALARKAPNLSAGKSKGGRPPRVKDTDTQALESDLSSVLGLDVSIDHRGSTGTLTITYATLEQLDDLCNRLTRGI

Variants of: B1
Assay: one-hybrid fitness for binding parS DNA (scaled: cognate 1, non-cognate 0); higher = stronger binding
Conditions: with parS DNA site
In short: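 Caulobacter ParB libraries with four specificity codons randomised were screened by bacterial one-hybrid selection in the E. coli USO strain, using a HIS3 reporter whose site lies 19 bp from the promoter. Selection ran for 48 hours at 37°C on M9 lacking histidine, with 0.1 mM IPTG and 5 mM 3-AT. Plasmids were Illumina-sequenced before and after selection, three replicate libraries were pooled, and variants with under 10 reads were dropped. Fitness is the log change in each variant's read ratio to wild type, rescaled against the cognate and non-cognate sites.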

| Variant | one-hybrid fitness for binding parS DNA |
| --- | --- |
| ILAR | ≤ 0.2 |
| RWLI | ≤ 0.2 |
| SIET | ≤ 0.2 |
| RHRT | 0.788 |
| FTTR | ≤ 0.2 |
| PTRI | ≤ 0.2 |
| KKCG | ≤ 0.2 |
| HMAN | ≤ 0.2 |
| EECR | ≤ 0.2 |
| VLNY | ≤ 0.2 |
| IVPS | ≤ 0.2 |
| QLPP | ≤ 0.2 |
| ATCA | ≤ 0.2 |
| MWQS | ≤ 0.2 |
| SPDN | ≤ 0.2 |
| VTPV | ≤ 0.2 |
| VPAV | ≤ 0.2 |
| KRPF | ≤ 0.2 |
| QHSP | ≤ 0.2 |
| WYNC | ≤ 0.2 |
| RLCT | 0.923 |
| HLKN | ≤ 0.2 |
| ESDR | ≤ 0.2 |
| CVHC | ≤ 0.2 |
| AYAY | ≤ 0.2 |
| PAKD | ≤ 0.2 |

| Variant | one-hybrid fitness for binding parS DNA |
| --- | --- |
| ITVP | ≤ 0.2 |
| NGTY | ≤ 0.2 |
| KQSE | ≤ 0.2 |
| SMKV | ≤ 0.2 |
| LSFI | ≤ 0.2 |
| GSSN | ≤ 0.2 |
| PQDC | ≤ 0.2 |
| FWRY | ≤ 0.2 |
| VFRG | ≤ 0.2 |
| PLDD | ≤ 0.2 |
| WMRC | ≤ 0.2 |
| NMSS | ≤ 0.2 |
| NTLL | ≤ 0.2 |
| NTSH | ≤ 0.2 |
| CVTT | ≤ 0.2 |
| MCQS | ≤ 0.2 |
| HNAK | ≤ 0.2 |
| QQPI | ≤ 0.2 |
| SYQK | ≤ 0.2 |
| MRPT | ≤ 0.2 |
| LKYC | ≤ 0.2 |
| WTRW | ≤ 0.2 |
| PCNS | ≤ 0.2 |
| ITMK | ≤ 0.2 |
| HVQL | ≤ 0.2 |
| AAMQ | ≤ 0.2 |

| Variant | one-hybrid fitness for binding parS DNA |
| --- | --- |
| RRHK | ≤ 0.2 |
| LHEG | ≤ 0.2 |
| RICC | 0.92 |
| HCIY | ≤ 0.2 |
| YPIR | ≤ 0.2 |
| DATG | ≤ 0.2 |
| VYMW | ≤ 0.2 |
| MHCR | ≤ 0.2 |
| SQAQ | ≤ 0.2 |
| NNVT | ≤ 0.2 |
| TWFK | ≤ 0.2 |
| NTKL | ≤ 0.2 |
| HGYT | ≤ 0.2 |
| PADL | ≤ 0.2 |
| EMSG | ≤ 0.2 |
| ARCC | ≤ 0.2 |
| THKF | ≤ 0.2 |
| HLVN | ≤ 0.2 |
| PPAQ | ≤ 0.2 |
| MGWW | ≤ 0.2 |
| PRNI | ≤ 0.2 |
| PRYV | ≤ 0.2 |
| QMSL | ≤ 0.2 |
| RKLH | 0.223 |
| FHNQ | 0.318 |
| DRHG | ≤ 0.2 |

| Variant | one-hybrid fitness for binding parS DNA |
| --- | --- |
| WLGC | ≤ 0.2 |
| STWT | ≤ 0.2 |
| SVSV | ≤ 0.2 |
| RQYY | 0.494 |
| PDYR | ≤ 0.2 |
| QYKK | ≤ 0.2 |
| IRAV | ≤ 0.2 |
| TWYR | ≤ 0.2 |
| VTLE | ≤ 0.2 |
| SPMY | ≤ 0.2 |
| HKVC | ≤ 0.2 |
| QVER | ≤ 0.2 |
| APQY | ≤ 0.2 |
| HSEQ | ≤ 0.2 |
| CFTM | ≤ 0.2 |
| SMTC | ≤ 0.2 |
| QKKF | ≤ 0.2 |
| DSRW | ≤ 0.2 |
| PWPC | ≤ 0.2 |
| CIRD | ≤ 0.2 |
| MMLG | ≤ 0.2 |
| IFKT | ≤ 0.2 |
| SCQY | ≤ 0.2 |
| AQHW | ≤ 0.2 |
| QCCA | ≤ 0.2 |
| TKET | ≤ 0.2 |

| Variant | one-hybrid fitness for binding parS DNA |
| --- | --- |
| LMNG | ≤ 0.2 |
| GCIS | ≤ 0.2 |
| HCSE | ≤ 0.2 |
| WNCL | ≤ 0.2 |
| RKER | ≤ 0.2 |
| TQLQ | ≤ 0.2 |
| YLSC | ≤ 0.2 |
| LRRA | ≤ 0.2 |
| RQTD | 0.217 |
| HHSP | ≤ 0.2 |
| QSKE | ≤ 0.2 |
| QPYN | ≤ 0.2 |
| QFIM | ≤ 0.2 |
| VWYT | ≤ 0.2 |
| VYMC | ≤ 0.2 |
| YAYT | ≤ 0.2 |
| EQRF | ≤ 0.2 |
| TSGS | ≤ 0.2 |
| MHAT | ≤ 0.2 |
| QVLA | ≤ 0.2 |
| APAM | ≤ 0.2 |
| DMSS | ≤ 0.2 |
| HQTG | ≤ 0.2 |
| REHW | ≤ 0.2 |
| LYAV | ≤ 0.2 |
| QTML | ≤ 0.2 |

| Variant | one-hybrid fitness for binding parS DNA |
| --- | --- |
| TWSG | ≤ 0.2 |
| SYQW | ≤ 0.2 |
| DVHC | ≤ 0.2 |
| QAWW | ≤ 0.2 |
| CRTL | ≤ 0.2 |
| RNGP | ≤ 0.2 |
| RQMD | ≤ 0.2 |
| TIPM | ≤ 0.2 |
| PRFH | ≤ 0.2 |
| KRIP | ≤ 0.2 |
| RRTC | 0.616 |
| CQCL | ≤ 0.2 |
| KGKV | ≤ 0.2 |
| GTAD | ≤ 0.2 |
| SNYS | ≤ 0.2 |
| GNPR | ≤ 0.2 |
| DATL | ≤ 0.2 |
| GSQC | ≤ 0.2 |
| QELQ | ≤ 0.2 |
| CAKG | ≤ 0.2 |
| ACWL | ≤ 0.2 |
| QPVH | ≤ 0.2 |
| NTNE | ≤ 0.2 |
